Reference: the supplement of paper PMC7826260
The list shows a part of the results. Viral Rep nickase domains cut single-stranded DNA in vitro (1 h at 37 °C, 3 µM enzyme); the outer parts of the 90-letter strands are left off. A value is the log2 ratio of uncut reads to the pool without enzyme; strong cutting gives strongly negative numbers. There is no active / inactive call. The scaling is to total reads, so uncut sequences can rise above 0 when many others are cut.

What was measured:
Assay in all cases: uncleaved DNA left, log2 of reads against the no-enzyme library (log2 ratio); higher = less cleavage (more negative = more Rep cleavage of the k-mer); sequences stand for … in CTCGTCCG…ACCGGAGA
[1] = test system: T1, Rep nickase domain of Muscovy duck circovirus
T1 sequence (residues 1-111, tag not shown): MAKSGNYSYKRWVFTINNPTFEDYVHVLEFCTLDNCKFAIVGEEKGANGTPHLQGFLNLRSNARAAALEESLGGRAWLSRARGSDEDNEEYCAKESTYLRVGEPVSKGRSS
Procedure: (§1)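 A pool of 90-nt single-stranded DNAs with seven random bases just before the constant AC of the nick site (name = the seven bases) was cut by 3 µM recombinant His6-SUMO-tagged Rep nickase domain (300 nM DNA, 50 mM HEPES pH 8.0, 50 mM NaCl, 1 mM MnCl2, 1 h, 37 °C, three replicates). Uncut DNA was amplified and sequenced.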

[2] = test system: T2, Rep nickase domain of banana bunchy top virus
T2 sequence (residues 1-94, tag not shown): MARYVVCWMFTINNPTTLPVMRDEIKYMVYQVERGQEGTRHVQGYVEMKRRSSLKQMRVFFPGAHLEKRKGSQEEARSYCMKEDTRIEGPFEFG
Procedure: as §1

[3] = test system: T3, Rep nickase domain of cabbage leaf curl virus
T3 sequence (residues 1-116, tag not shown): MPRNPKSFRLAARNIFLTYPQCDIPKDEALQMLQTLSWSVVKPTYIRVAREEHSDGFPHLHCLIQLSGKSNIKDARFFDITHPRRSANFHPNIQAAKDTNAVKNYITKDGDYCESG
Procedure: as §1

[4] = test system: T4, Rep nickase domain of chickpea chlorotic dwarf virus
T4 sequence (residues 1-124, tag not shown): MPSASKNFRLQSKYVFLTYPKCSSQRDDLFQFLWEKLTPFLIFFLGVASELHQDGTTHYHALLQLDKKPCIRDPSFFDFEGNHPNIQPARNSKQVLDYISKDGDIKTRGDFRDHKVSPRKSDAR
Procedure: as §1

[5] = test system: T5, Rep nickase domain of faba bean necrotic yellows virus
T5 sequence (residues 1-98, tag not shown): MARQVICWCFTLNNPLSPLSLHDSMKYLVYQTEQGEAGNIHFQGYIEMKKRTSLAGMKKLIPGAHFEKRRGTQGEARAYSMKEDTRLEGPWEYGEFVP
Procedure: as §1

[6] = test system: T6, Rep nickase domain of maize striate mosaic virus
T6 sequence (residues 1-117, tag not shown): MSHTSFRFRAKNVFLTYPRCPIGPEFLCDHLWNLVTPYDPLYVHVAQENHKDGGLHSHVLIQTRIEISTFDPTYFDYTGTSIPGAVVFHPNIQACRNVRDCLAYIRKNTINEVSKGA
Procedure: as §1

[7] = test system: T7, Rep nickase domain of porcine circovirus 2
T7 sequence (residues 2-116, tag not shown): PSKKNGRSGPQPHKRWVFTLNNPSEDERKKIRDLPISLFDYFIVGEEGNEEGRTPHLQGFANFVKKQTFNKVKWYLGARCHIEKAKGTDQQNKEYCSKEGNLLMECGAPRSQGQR
Procedure: as §1

[8] = test system: T8, Rep nickase domain of tomato golden mosaic virus
T8 sequence (residues 1-124, tag not shown): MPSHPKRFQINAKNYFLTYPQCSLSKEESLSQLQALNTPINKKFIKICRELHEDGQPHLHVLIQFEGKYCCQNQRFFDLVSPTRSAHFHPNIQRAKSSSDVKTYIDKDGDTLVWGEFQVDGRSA
Procedure: as §1

[9] = test system: T9, Rep nickase domain of tomato yellow leaf curl virus
T9 sequence (residues 1-136, tag not shown): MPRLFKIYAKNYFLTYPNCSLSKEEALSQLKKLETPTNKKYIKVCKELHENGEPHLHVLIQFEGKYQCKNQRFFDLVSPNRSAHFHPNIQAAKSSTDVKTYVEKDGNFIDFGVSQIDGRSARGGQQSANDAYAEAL
Procedure: as §1

[10] = test system: T10, Rep nickase domain of wheat dwarf virus
T10 sequence (residues 1-137, tag not shown): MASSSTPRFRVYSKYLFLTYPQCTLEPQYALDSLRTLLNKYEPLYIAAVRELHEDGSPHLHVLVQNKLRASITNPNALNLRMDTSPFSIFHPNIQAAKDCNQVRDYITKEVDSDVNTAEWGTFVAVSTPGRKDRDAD
Procedure: as §1

Row | Sequence | uncleaved DNA left (log2) [1] | uncleaved DNA left (log2) [2] | uncleaved DNA left (log2) [3] | uncleaved DNA left (log2) [4] | uncleaved DNA left (log2) [5] | uncleaved DNA left (log2) [6] | uncleaved DNA left (log2) [7] | uncleaved DNA left (log2) [8] | uncleaved DNA left (log2) [9] | uncleaved DNA left (log2) [10]
1 | TCAGGGG | 0.0909 | -0.0284 | 0.226 | 0.643 | 0.0304 | 0.18 | 0.228 | 0.146 | 0.0227 | 0.0913
2 | GCAGCCA | 0.147 | 0.0931 | 0.00392 | -0.274 | -0.0244 | -0.121 | 0.0729 | 0.099 | 0.0958 | 0.0359
3 | CCTACGG | -0.0519 | 0.0398 | 0.443 | 1.11 | -0.0315 | 1.61 | 0.0515 | 0.152 | -0.117 | -0.0152
4 | AGCAAGT | 0.0916 | 0.169 | 0.159 | 0.316 | 0.096 | 0.0882 | -0.00268 | 0.153 | 0.00948 | 0.132
5 | AGGAGCT | 0.0623 | 0.109 | 0.201 | 0.411 | 0.0096 | 0.332 | 0.113 | 0.0397 | -0.0613 | -0.0049
6 | TGGGATT | -0.0782 | -0.00426 | 0.652 | 1.72 | -0.00294 | 2.04 | 0.159 | -0.0634 | 0.0534 | 0.0557
7 | GGGCCTT | 0.0778 | 0.0508 | 0.829 | 1.99 | 0.0938 | 2.31 | 0.142 | -0.00187 | 0.0804 | 0.188
